Measurements reported in the supplement of paper PMC11417369.
The other results are listed elsewhere or left out.

system: PfHDP1 homeodomain (GST-tagged); experiment: gcPBM binding intensity (ln(normalized median fluorescence intensity)); higher = stronger DNA binding
In short: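 Each value is the highest Masliner-normalised natural-log median intensity across replicate spots of either orientation of a probe. The probes were primer-extended double-stranded 36-bp intergenic genomic sequences on an Agilent 4 × 180k array, alongside negative controls, exposed for 1 h to GST-tagged P. falciparum DNA-binding domains expressed in E. coli. Bound protein was picked up with Alexa488 anti-GST antibody and scanned at 488 nm.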

| Sequence | gcPBM binding intensity (ln) |
| --- | --- |
| ATATATTTTAAAGAAAGTACCCACCGTTTGAAGTCA [XGTACX_site2273] | 6.73 |
| TCTTATTTTATAAATATAAATATATATATATATATA [GTGCAC_negctrl_site479] | 9.14 |
| TATTTTATAATTTACCGTACATTAATTGTATTATTA [XGTACX_site5722] | 6.35 |
| ATATATTTTATATGTGTGCACTATATATATATATAT | 10.8 |
| AAAAAAAAAAAAAAAAAAAAAAATATATATATATTT [GTGCAC_negctrl_site502] | 7.07 |
| CCCCTTAATTTATTTTGTACATATAATTTTTTTTTT [XGTACX_site3270] | 6.52 |
| ATTAATCAATATAGGCGTACAAAAAAAATAAATTAT [XGTACX_site1513] | 6.92 |
| CTTGTATATAAACACACACACACTTTCTTTTTTTAA [CACACA_site8602] | 6.81 |
| ACAAAAATAAGCAAATGTACATATGTATAATATATT [XGTACX_site2492] | 6.77 |
| GTATTTTTAAATGACACACACATATATAAATATGTA [CACACA_site6880] | 6.42 |
| TATAAACATAAATATACACACAAACATATAGGTATT [CACACA_site6690] | 6.59 |
| ATATAATAATATTAAAGTACATGCATATATATTTAT [XGTACX_site7422] | 6.46 |
| TAATATAACAAAAAAATAAAATAAAATAAAAAATAA [CACACA_negctrl_site109] | 6.39 |
| ACTATTTAAATGCAAAGTACTTTGATAATAAACAAT [XGTACX_site2608] | 7.25 |
| CATAATATCTCTTTGTGTACATATAGTTATTATTAT [XGTACX_site7688] | 6.56 |
| ATTTTTTAAAAAAACATACACACAAAAAAAAAAAAA [CACACA_site3936] | 6.29 |
| ATTATTATATATAAAACACACAATTTTGTTTTCACA [CACACA_site3965] | 6.59 |
| CTGGAGTTAAAAATGTGTACCTAAAAAATTTTGTTC [XGTACX_site5554] | 6.38 |
| GTATAAAAAAATATATGTACTTATTTACATATATAT [XGTACX_site4744] | 6.2 |
| TGAAATGATATATAAACACACATATATATATATATA [CACACA_site3511] | 9.38 |
| ATTTTTAATGTGATCACACATAAATATTATATATAT [CACACA_site5641] | 6.78 |
| ATATTATAATTGAAGGTGCAAAATGTAATATAGATA [GTGCAC_site9661] | 9.76 |

| Sequence | gcPBM binding intensity (ln) |
| --- | --- |
| ATTCATTTTTTGGGGGGTACACCCTTTTAAACATTT [XGTACX_site4797] | 7.88 |
| ATTATTATTTAAAAAAGTACATTGAAGTTCATAATA [XGTACX_site3575] | 6.43 |
| ATCCACAAAATAGGATGTACATATAAAATAAATAAA [XGTACX_site5362] | 6.48 |
| TATGGAATAATACGCGTACACACATATATATATTAA [CACACA_site132] | 6.75 |
| TTATAAATTTAAAGTAGTACTATACTACTATTTTAT [XGTACX_site3038] | 6.09 |
| CATTTTTTATAATAATGTACATGTATTAAAAAAAAA [XGTACX_site6390] | 6.2 |
| TTTATAAGAATTACTAGTACATATAAGGAATTATAT [XGTACX_site3953] | 6.08 |
| GCACACACAAAAAAAGCATGCATACTAGCTATTTTT [TGCATGCA_site18] | 6.35 |
| TATTTTTTTCATAACAGTACAATAATATATATTTTT [XGTACX_site5739] | 6.6 |
| TTTTTTACAAATGATATCATTTCTTTAAATATTAAA [TGCATGCA_negctrl_site279] | 6.76 |
| CTATAAATGAATGTTTGTACTTAATAATAAAAGAAA [XGTACX_site3170] | 6.61 |
| AATGAAATAAATAAGGGTACACATAAATATATATAT [XGTACX_site7006] | 8.42 |
| AAAAAACACCCATACACACACACACCGATATATATA [CACACA_site5808] | 6.94 |
| TATTCGTGCAATAATAGTACACTTATAAATTATTCA [XGTACX_site8993] | 10.3 |
| AATCAAAAAAAATGTTGTACGCCTAATTATAATTAA [XGTACX_site8906] | 6.59 |
| AATGGGGAAGGTTCTACACACAACGCAAATGCCTTA [CACACA_site2758] | 6.41 |
| AAATTATTATGTATTTGTACACATAAGAATATAAAA [XGTACX_site6841] | 6.32 |
| TATAAATAATGTTAAACACACATACCGATATATAAT [CACACA_site5499] | 6.64 |
| TCAGTTAATGTATATGTACACACGGTGAGTATATAT [CACACA_site3346] | 6.74 |
| AGAGAAAGAAAGAAATGTACAAATACCTACACACAT [XGTACX_site3140] | 6.96 |
| TTTTTTATATATGTGTGTGTGTGTGTGTCAAGTTTA [GTGCAC_negctrl_site460] | 7.06 |
| ATAACATAATAGCAACAATTTATTTCCTCTATAACA [CACACA_negctrl_site243] | 6.37 |

| Sequence | gcPBM binding intensity (ln) |
| --- | --- |
| TTTGGGATATTTACAGTGCAAAGATATTTTTATAAT | 8.48 |
| ATATTTTTGTTCAGGAGTACAGTTCAAGATGAAAAT [XGTACX_site4178] | 6.52 |
| ATTCTATATATATAAACACACAAATATTTTTATATA [CACACA_site1677] | 6.58 |
| TTTTAGTGAAATGAGTGTACATTATATATTTTTTTT [XGTACX_site4892] | 6.23 |
| ATATAAGGAAGGGATGCACACAAAAGGGTACATAAG [CACACA_site9328] | 7.48 |
| AAGACTAATCTAGGTAGTACTTATATATCTTTATTT [XGTACX_site4572] | 6.08 |
| TATATATCAAAAATATGTACACAGAAATATATATTA [XGTACX_site6997] | 6.96 |
| ACATATAAAATATATACACACATATAAATACATTAA [CACACA_site3867] | 6.24 |
| TTGCAATAATGTTGCACACTAAATAGTCATATATAA [CACACA_site263] | 9.77 |
| ATATAATATTACAAATGTACTTTAAAAAATTAGGAG [XGTACX_site3897] | 6.59 |
| TTGTTTCAAGAAAAAATCGAAAAACATAGAAAAAAA [XGTACX_negctrl_site615] | 6.32 |
| TCATATTAATTTGATAGTACATATACTTTGAAGTCC [XGTACX_site3767] | 6.51 |
| TGTATATAAACAAGGGGTACAATAATATAAATAAAT [XGTACX_site8675] | 6.61 |
| TCACATACATTACTTACACACCATATTAATATATAC [CACACA_site8047] | 7.11 |
| AATAAAAAATAAAAAATAAACAGTATACATATATAT [GTGCAC_negctrl_site31] | 6.76 |
| AAAAATATAATATATCTAAAATTTTTCATTAAATAT [XGTACX_negctrl_site274] | 6.16 |
| TTATATATAGAATAAACATGCATTTGTATATGAATA [TGCATGCA_site604] | 6.61 |
| ATAAATAAAAATACATGAACAGGTCAGGTTATTTTT [CACACA_negctrl_site1007] | 6.14 |
| ACATATATATATTTATATATATATATATATATGTGA [CACACA_negctrl_site613] | 6.71 |
| TTTTTTTTTTTTTTTACACACTATAGGGAAAAAAAA [CACACA_site1916] | 6.48 |
| TTTATTAGATAACGATAAACGAAAAAAAAAAAATAA [GTGCAC_negctrl_site81] | 6.37 |
| ATAATATAAATAAAGCGTACTTAATTTTATATATAT [XGTACX_site4626] | 6.17 |

| Sequence | gcPBM binding intensity (ln) |
| --- | --- |
| TGTTGTAACAAAAGTACACACACATTTCTATAAATT [CACACA_site8894] | 6.29 |
| ATTACATAACAATATACACACTATTGATTAAAGAGA [CACACA_site5602] | 6.74 |
| AACAGACATAGACACACACACATATATTTATTTATA [CACACA_site7571] | 6.93 |
| ATGCAAATAATATAAAGTACACAACATCGCCCAAAG [XGTACX_site1825] | 7 |
| TTTTTTAAATTTTGAATTATAACTACATTAAAGAAA [GTGCAC_negctrl_site279] | 6.07 |
| TATTTAAAAGTATATACACACAACTGGAATGAAAAG [CACACA_site4126] | 7.33 |
| CATTATGTCATAAATGCACACATATATATATACATA [CACACA_site8454] | 9.98 |
| AAAATTAAAAAAATAAATACATTATATAATTAAAAA [CACACA_negctrl_site1426] | 6.35 |
| TATGTATGCCCTAATGCATGTGAACAAAATAATATA [TGCATGCA_site407] | 7 |
| ATTATAACACCTCCCCCCCTTTTTTTATGAAGACCA [CACACA_negctrl_site1043] | 8.51 |
| TATTTTAATCGTAAGTGTACTCTTTTAAGTATATGT [XGTACX_site8591] | 6.27 |
| TTCTTAAAATATGAAAGTACATAGGCATTATATATT [XGTACX_site8400] | 6.13 |
| ATAAACTGAGTGGTTACACACAAAACCAATAACTTT [CACACA_site7601] | 6.15 |
| ATATAGACACACACATGTACATATGCCAACGTGATA [XGTACX_site3828] | 6.68 |
| ACTATATAATATAATATATTATAATATATTATATTA [GTGCAC_negctrl_site140] | 6.58 |
| TATATATATATATATTGTACTTATGTTTATATTCAT [XGTACX_site6258] | 9.2 |
| TTCTTTAAAATATTATGTACACATTGCGAACAGTTT [XGTACX_site5418] | 7.02 |
| AGTTTATTTATATACACACACATATAAATATTATAG [CACACA_site6522] | 6.91 |
| ATATATATTTATGTATCACACACAAAAAAAAAAAAT [CACACA_site7973] | 6.58 |
| TATGCAAGGAACCACACACACACACCGAAATGTATA [CACACA_site4573] | 6.85 |
| TTTTTTATTAGTATCTGTACACATTGGTATTTGTAT [XGTACX_site6682] | 6.76 |
| AATAAATAAATATATATATATATATAATATCATAAA [CACACA_negctrl_site337] | 6.48 |
